Reference: PubChem BioAssay AID445 (National Center for Advancing Translational Sciences (NCATS), 2006)
The campaign covered roughly 110,000 compounds. About 40 (0.04%) were called active. The inconclusive results got no clear call from the source; some entries with a clear call stand among them for comparison. Calls come from the whole dose curve; as a rule, active = well fitted curve in the direction sought with a large enough effect in the signal ratio (not every such curve was filed as active); inconclusive = small, poorly fitted or top-dose-only effect, or a change in a side signal; inactive = flat fitted curve, though single readings scatter; the % refers to the signal ratio. Where the call is inconclusive, the potency comes from a doubtful curve fit.

Assay: IkB Signaling
Details: ABC-DLBCL IkBa-CBG/CBR dual luciferase ratio (green luciferase fused to IkBa over red control in OCI-Ly3 lymphoma cells), 4 h; IkBa stabilization activation: at 57.1 µM (top of the series), scaled: untreated 0%, proteasome inhibitor 100% unless noted
Summary of the method: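 Curves were fitted separately to fusion (green), unfused (red) and ratio luminescence, then classed by r2, magnitude and activity. Cells: OCI-Ly3, 4 h compound plus doxycycline at 37C; 10 uM MG-132 defined full response.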
Potency is the fitted concentration of half-maximal effect.

Q: For COc1ccc(-c2cn3c(C)c(C(=O)Nc4cc(NC(C)=O)ccc4OC)sc3n2)cc1, which Potency is on record?
A: inconclusive: 12.6 µM [signal inhibitor, partial curve]

Q: For CCOc1ccc2nc(N3CCC(C(=O)N4CCN(c5ncccn5)CC4)CC3)sc2c1, which IkBa stabilization activation is on record?
A: inactive

Q: For COc1ccccc1-c1nc(S(=O)(=O)c2ccc(Cl)cc2)c(N(C)C)o1, which IkBa stabilization activation is on record?
A: inactive

Q: For O=C(O)[C@H]1CCCC[C@@H]1c1c2ccc(=O)c(O)c-2oc2c(O)c(O)ccc12, which IkBa stabilization activation is on record?
A: inactive: 0.283% [at 11.4 µM, scaled: untreated 0%, proteasome inhibitor 100%]

Q: For CCC(c1nnnn1Cc1ccco1)N(Cc1ccccc1OC)Cc1cc2cc(C)ccc2[nH]c1=O (configuration not stated), which IkBa stabilization activation is on record?
A: inconclusive: 5.11% [signal inhibitor]

Q: Which IkBa stabilization activation does the source give for CN(Cc1ccccc1)C(=O)Nc1ccc2c(c1)N(C)C(=O)c1ccccc1S2 here?
A: inactive

Q: For COC(=O)c1scc(-c2ccc(C)cc2)c1S(=O)(=O)N1CCN(c2cccc(OC)c2)CC1, which IkBa stabilization activation is on record?
A: inconclusive: 0.405% [signal inhibitor]

Q: Which IkBa stabilization activation does the source give for Fc1ccc(Nc2c3c(nc4ccccc24)CCC3)cc1 here?
A: inconclusive: 2.83% [signal inhibitor]

Q: With Cc1ccc(Sc2c(C)nn(C(C)(C)C)c2OC(=O)C(C)(C)C)cc1 as the molecule, how does the IkBa stabilization activation read?
A: inconclusive: 3.39% [signal inhibitor]

Q: For O=C(NCc1ccco1)c1ccc2c(c1)N(Cc1ccc(Cl)cc1)C(=O)c1ccccc1S2=O (configuration not stated), which IkBa stabilization activation is on record?
A: inconclusive: 3.03% [signal inhibitor]

Q: With CCN(C(=O)C1CCCN(S(=O)(=O)c2c(C)noc2/C=C/N(C)C)C1)c1cccc(C)c1 (configuration not stated) as the molecule, how does the IkBa stabilization activation read?
A: inconclusive: 3.27% [signal inhibitor]

Q: For CCN(c1ccccc1)c1nnc(NC(=O)Nc2ccccc2F)s1, which IkBa stabilization activation is on record?
A: inconclusive: 3.36% [signal inhibitor]

Q: Which IkBa stabilization activation does the source give for O=C1CC(c2ccc3c(c2)OCO3)Sc2nc3ccccc3n21 (configuration not stated) here?
A: inconclusive: 16.3% [signal inhibitor]

Q: With Cc1nc(Oc2ccc(F)cc2Cl)c2oc3ccccc3c2n1 as the molecule, how does the IkBa stabilization activation read?
A: inconclusive: 0.35% [signal inhibitor]

Q: Which Potency does the source give for O=C(CN1C(=O)COc2ccccc21)Nc1ccc(F)cc1 here?
A: inconclusive: 3.16 µM [signal inhibitor, partial curve]

Q: Which IkBa stabilization activation does the source give for CCC(=O)N1CCc2cc(Br)cc(S(=O)(=O)CCC(=O)NCc3ccc(Cl)cc3)c21 here?
A: inconclusive: 0.295% [signal inhibitor]

Q: Which Potency does the source give for CC1(C)CC(NC(=O)CC2CCCCC2)CC(C)(C)N1 here?
A: inconclusive: 20 µM [signal inhibitor, partial curve]

Q: With CCOc1ccccc1NC(=O)CN(C)S(=O)(=O)c1ccc2nc(C)sc2c1 as the molecule, how does the IkBa stabilization activation read?
A: inconclusive: -0.418% [signal inhibitor]

Q: With CSC1=NC2(CCN(C(=O)NC3CCCCC3)CC2)N=C1c1ccc(C)c(C)c1 as the molecule, how does the IkBa stabilization activation read?
A: inconclusive: -0.191% [signal inhibitor]

Q: Which IkBa stabilization activation does the source give for CCOc1cccc(C(=O)N(Cc2ccc(F)cc2)C2CCS(=O)(=O)C2)c1 (configuration not stated) here?
A: inactive

Q: Which IkBa stabilization activation does the source give for COc1ccc(Br)cc1CNC(=O)c1cc2n(n1)CCCN(Cc1ccc(C)cc1)C2=O here?
A: inconclusive: 4.97% [signal inhibitor]

Q: Which Potency does the source give for CCOC(=O)CCc1c(C)nc2cc(-c3ccccc3OC)[nH]n2c1=O here?
A: inconclusive: 3.98 µM [signal inhibitor, full curve]

Q: Which Potency does the source give for O=C(Nc1sc2c(c1C(=O)NCc1ccco1)CCCC2)c1cc(=O)c2ccccc2o1 here?
A: inconclusive: 31.6 µM [falling, single point]

Q: With COC(=O)CSc1nc2c(c(-c3ccco3)c1C#N)CCCC2 as the molecule, how does the IkBa stabilization activation read?
A: inactive

Q: With COc1cc(NC(=O)Cn2c(=O)n(Cc3ccco3)c(=O)c3sc4ccccc4c32)cc(OC)c1 as the molecule, how does the IkBa stabilization activation read?
A: inconclusive: 4.87% [signal inhibitor]

Q: With COCCCNc1oc(/C=C/c2cc(OC)c(OC)c(OC)c2)nc1C#N as the molecule, how does the IkBa stabilization activation read?
A: inconclusive: 14.4% [signal inhibitor]

Q: With CCn1cc(C(=O)OCc2ccc(F)cc2)c(=O)c2ccc(C)nc21 as the molecule, how does the IkBa stabilization activation read?
A: inactive

Q: With Cc1ccc(N2CCN(C(=O)c3c(C)oc4ncn(CC(C)C)c(=O)c34)CC2)c(C)c1 as the molecule, how does the IkBa stabilization activation read?
A: inconclusive: 3.62% [signal inhibitor]

Q: With Cc1ccc(C)c(N2CCN(C(=O)C3CCN(c4nc5ccc(C)cc5[nH]4)CC3)CC2)c1 as the molecule, how does the IkBa stabilization activation read?
A: inconclusive: 1.33% [signal inhibitor]

Q: For CCC(C)NC(=O)c1cc(-c2cccc(OC)c2)on1 (configuration not stated), which Potency is on record?
A: inconclusive: 25.1 µM [signal inhibitor, partial curve]

Q: Which IkBa stabilization activation does the source give for Cc1cc(-c2ccc(C)c(S(=O)(=O)N3CCN(c4cccc(C(F)(F)F)c4)CC3)c2)on1 here?
A: inconclusive: -0.223% [signal inhibitor]

Q: With Cc1ccc(Oc2c(C(F)(F)F)oc3c(CN4CCC(C)CC4)c(O)ccc3c2=O)cc1 as the molecule, how does the IkBa stabilization activation read?
A: inconclusive: 2.5% [signal inhibitor]

Q: With COC(=O)c1ccc(CSc2nc3ccccc3c(=O)n2-c2ccc(OC)c(OC)c2)o1 as the molecule, how does the IkBa stabilization activation read?
A: inactive

Q: For CCOc1ccc(C(=O)CCN2CCCCCC2)cc1, which Potency is on record?
A: inconclusive: 6.31 µM [signal inhibitor, single point]

Q: With Cc1ccc(S(=O)(=O)Nc2cc3c(cc2NCc2ccccc2)n(C)c(=O)n3C)c(C)c1 as the molecule, how does the IkBa stabilization activation read?
A: inconclusive: 1.14% [signal inhibitor]

Q: For O=C(CCC1N=C2c3ccccc3N=C(SCc3ccc(F)cc3)N2C1=O)NCc1ccc(F)cc1 (configuration not stated), which IkBa stabilization activation is on record?
A: inconclusive: -3.65% [signal inhibitor]

Q: For COc1ccc(-c2cc3nc(C)c(CCC(=O)Nc4ccccc4C(C)=O)c(C)n3n2)c(OC)c1, which Potency is on record?
A: inconclusive: 31.6 µM [signal inhibitor, single point]

Q: Which IkBa stabilization activation does the source give for Cc1cccc(Cn2c(SCc3ccc(C(=O)NCCc4ccccc4)cc3)nc3ccncc32)c1 here?
A: inconclusive: 3.91% [signal inhibitor]

Q: For CCc1cccc(C)c1NC(=O)Cn1ccn(-c2cccc(OC)c2)c(=O)c1=O, which IkBa stabilization activation is on record?
A: inconclusive: 6.97% [signal inhibitor]

Q: With O=C(CCc1nc(CN2CCN(S(=O)(=O)c3ccc(Cl)cc3)CC2)no1)N1CCCCC1 as the molecule, how does the IkBa stabilization activation read?
A: inactive

Q: For CCCC1=Nc2cc(C(=O)NCc3ccc(OC)cc3)ccc2Sc2ccc(C)cc21, which IkBa stabilization activation is on record?
A: inconclusive: 10.3% [signal inhibitor]

Q: For Cc1ccc(Cl)cc1-n1c(=O)cc(N2CC(C)OC(C)C2)[nH]c1=O (configuration not stated), which IkBa stabilization activation is on record?
A: inactive

Q: Which IkBa stabilization activation does the source give for Cc1ccc(S(=O)(=O)Nc2ccccc2C(=O)c2ccc(C)c(C)c2)cc1 here?
A: inconclusive: 20.2% [signal inhibitor] [at 11.4 µM, scaled: untreated 0%, proteasome inhibitor 100%]

Q: With CCOc1ccc(-c2nc(CSCC(=O)N3CCN(c4ccc(F)cc4)CC3)c(C)o2)cc1 as the molecule, how does the IkBa stabilization activation read?
A: inconclusive: 1.76% [signal inhibitor]

Q: With Cn1cccc1Cc1nnc(SCC(=O)Nc2ccc3c(c2)OCO3)n1CCc1ccccc1 as the molecule, how does the IkBa stabilization activation read?
A: inactive

Q: Which IkBa stabilization activation does the source give for CCCc1nc2oc3c(NCCN4CCOCC4)ncnc3c2c2c1CCCC2 here?
A: inactive

Q: Which IkBa stabilization activation does the source give for Cc1cc(C)n(-c2nc3ccccc3c3nc(C)nn23)n1 here?
A: inactive

Q: With O=C1NC(Nc2nc3ccccc3s2)(C(F)(F)F)C(=O)N1C1CCCCC1 (configuration not stated) as the molecule, how does the IkBa stabilization activation read?
A: inconclusive: 2.63% [signal inhibitor]

Q: With COc1ccc2c(OC)c3ccoc3nc2c1OC as the molecule, how does the IkBa stabilization activation read?
A: inactive

Q: With CCOc1ccc(C(=O)Nc2ccc3nc(SCCOc4ccccc4)sc3c2)cc1 as the molecule, how does the IkBa stabilization activation read?
A: inconclusive: -2.78% [signal inhibitor]

Q: With NC(=O)SCC(=O)Nc1ccc2ncccc2c1 as the molecule, how does the IkBa stabilization activation read?
A: inactive: -1.35% [at 11.4 µM, scaled: untreated 0%, proteasome inhibitor 100%]

Q: For CC(=O)c1cccc(NC(=O)Cn2nc(C)n3cccc3c2=O)c1, which IkBa stabilization activation is on record?
A: inconclusive: 11.7% [signal inhibitor]

Q: With CC(=O)N1CCCc2cc(S(=O)(=O)N3CCC(C(=O)Nc4cccc(Cl)c4C)CC3)ccc21 as the molecule, how does the IkBa stabilization activation read?
A: inconclusive: 2.4% [signal inhibitor]

Q: For Cc1cc2ccccc2n1-c1ccc(C(=O)N2CCC(C(=O)NCc3ccc(Cl)cc3)CC2)s1, which IkBa stabilization activation is on record?
A: inconclusive: 3.37% [signal inhibitor]

Q: With CCC(=O)Nc1cc(-c2nn(C)c(=O)c3ccccc23)ccc1OC as the molecule, how does the IkBa stabilization activation read?
A: inactive

Q: With O=C(CSc1nnc(-c2cccs2)o1)Oc1ccccc1 as the molecule, how does the IkBa stabilization activation read?
A: inconclusive: 2.85% [signal inhibitor]

Q: With CC(=O)c1sc(NC(=O)C2(F)C(F)(F)C(F)(F)C(F)(F)C(F)(F)C2(F)F)nc1C as the molecule, how does the IkBa stabilization activation read?
A: inconclusive: 6.13% [signal inhibitor]

Q: For CC(C)(C)c1ccc(-c2conc2N)cc1, which IkBa stabilization activation is on record?
A: inactive

Q: With O=C(c1cccnc1)N1CCN(S(=O)(=O)c2ccc(S(=O)(=O)N3CCCC3)cc2)CC1 as the molecule, how does the IkBa stabilization activation read?
A: inconclusive: -2.31% [signal activator]

Q: For COc1cccc(-c2nnc(SCC(=O)N(C(C)C)C(C)C)o2)c1, which IkBa stabilization activation is on record?
A: inactive

Q: With COc1ccc2oc(=O)c(C(=O)NCCc3c(C)[nH]c4c(C)cccc34)cc2c1 as the molecule, how does the IkBa stabilization activation read?
A: inconclusive: 0.702% [signal inhibitor]

Q: For COc1cc([C@@H](O)CO)ccc1OS(=O)(=O)O, which IkBa stabilization activation is on record?
A: inactive

Q: Which IkBa stabilization activation does the source give for COC(=O)c1cc(NC(=O)CCS(=O)(=O)c2cc(Br)cc3c2N(C(=O)C2CC2)CC3)cc(C(=O)OC)c1 here?
A: inconclusive: -0.843% [signal inhibitor]

Q: For CCOc1ccc(-c2csc3ncnc(Nc4cccc(O)c4)c23)cc1, which IkBa stabilization activation is on record?
A: inconclusive: -0.772% [signal inhibitor]

Q: With Cc1ccccc1C(=O)Nc1ccc(NC(=O)c2cccs2)cc1 as the molecule, how does the IkBa stabilization activation read?
A: inconclusive: 22.7% [signal inhibitor]

Q: With CC(=O)N1CCCc2cc(S(=O)(=O)N3CCC(C(=O)NCc4ccc(F)cc4)CC3)ccc21 as the molecule, how does the IkBa stabilization activation read?
A: inconclusive: 1.15% [signal inhibitor]

Q: Which IkBa stabilization activation does the source give for CCN1c2ccccc2NC2N=C(OC)C(c3ccccc3)C21 (configuration not stated) here?
A: inconclusive: 2.85% [signal inhibitor]
